Laboratory results as given in paper PMC4336329 (PLoS ONE, 2015).
The whole screen tested about 310,000 compounds, of which about 2,200 (0.71%) showed an effect of 50% or more. Effects have a minus sign here. This is one part of the list.

Molecular target: human ether-à-go-go-related gene (hERG) potassium channel (human, UniProt Q12809)
Experiment: primary screen, population patch clamp on CHO cells stably expressing hERG

human ether-à-go-go-related gene (hERG) potassium channel, sequence (Q12809 whole entry, looked up): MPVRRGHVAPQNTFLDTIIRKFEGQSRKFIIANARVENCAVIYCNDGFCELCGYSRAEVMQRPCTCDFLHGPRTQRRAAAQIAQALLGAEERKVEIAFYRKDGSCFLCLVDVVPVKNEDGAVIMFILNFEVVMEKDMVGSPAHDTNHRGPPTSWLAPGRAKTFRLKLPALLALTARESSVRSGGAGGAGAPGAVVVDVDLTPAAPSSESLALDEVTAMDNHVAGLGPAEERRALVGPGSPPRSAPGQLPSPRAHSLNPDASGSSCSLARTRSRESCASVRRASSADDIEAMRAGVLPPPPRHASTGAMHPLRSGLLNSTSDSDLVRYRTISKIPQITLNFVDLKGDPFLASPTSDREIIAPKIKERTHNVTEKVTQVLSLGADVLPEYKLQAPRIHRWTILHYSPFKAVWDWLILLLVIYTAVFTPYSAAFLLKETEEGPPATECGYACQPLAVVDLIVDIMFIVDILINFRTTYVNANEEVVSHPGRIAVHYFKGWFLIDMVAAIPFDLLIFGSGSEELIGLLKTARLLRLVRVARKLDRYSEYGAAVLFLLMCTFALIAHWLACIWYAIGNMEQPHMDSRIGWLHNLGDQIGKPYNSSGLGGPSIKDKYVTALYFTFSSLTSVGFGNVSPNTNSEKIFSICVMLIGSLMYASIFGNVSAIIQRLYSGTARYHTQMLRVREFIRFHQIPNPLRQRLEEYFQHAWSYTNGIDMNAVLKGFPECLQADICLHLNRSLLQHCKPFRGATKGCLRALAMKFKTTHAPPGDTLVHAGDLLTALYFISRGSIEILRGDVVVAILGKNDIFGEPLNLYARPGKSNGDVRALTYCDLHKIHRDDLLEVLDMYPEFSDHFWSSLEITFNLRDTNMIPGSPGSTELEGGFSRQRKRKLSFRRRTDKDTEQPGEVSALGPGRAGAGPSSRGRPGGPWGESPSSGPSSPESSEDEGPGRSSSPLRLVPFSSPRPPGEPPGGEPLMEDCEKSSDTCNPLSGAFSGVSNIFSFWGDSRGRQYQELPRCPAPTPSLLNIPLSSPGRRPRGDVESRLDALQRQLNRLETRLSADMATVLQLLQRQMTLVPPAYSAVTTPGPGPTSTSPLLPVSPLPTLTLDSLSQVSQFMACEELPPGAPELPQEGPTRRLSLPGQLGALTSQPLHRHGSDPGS

Point of comparison: Cc1cc(NC(=O)C(C)SCC(=O)O)no1 (stereo not shown), “hERG current change (%, negative = inhibition) at 1uM” value 3.41%. Against it:
- CC(C)C(=O)N1CCC(Cc2ccccc2)CC1 — higher, 10%
- Cc1nnc(SCC(=O)Nc2ccccc2)n(N)c1=O — lower, 1.55%
- COC(=O)c1ccc(C(=O)OC)c(NC(=O)/C=C/C(=O)O)c1 — higher, 5.2%
- O=[N+]([O-])c1cccc(/C=N/Nc2cc(Cl)nc(-c3ccccc3)n2)c1 — higher, 11.7%
- COc1cc(/C=N/NC(=O)Cc2nnc(NC(=O)c3ccccc3)s2)ccc1O — higher, 10.3%
- CCOc1ccc2[nH]c(=O)c(CN(CC3CCCN3CC)C(=O)NCc3ccccc3)cc2c1 (stereo not shown) — lower, -22.2%
- O=C1CCCc2ccccc2N1 — higher, 15.9%
- COc1cccc(N2CC(C(=O)Nc3ccc(C(=O)OC(C)C)cc3)CC2=O)c1 (stereo not shown) — higher, 7.14%
- CCC(C)NC(=O)c1cc(Cl)c(NC(=O)C2=C(C)OCCS2)cc1OC (stereo not shown) — higher, 7.01%
- Cn1ccnc1SCC(=O)Nc1ccc(Cl)cn1 — lower, 2.2%
- CC(=O)c1ccc(NC(=O)Nc2sc(NS(=O)(=O)c3ccccc3)nc2C)cc1 — higher, 14.9%
- Cc1ccc(NC(=O)CSc2nnnn2C2CCCC2)cc1S(=O)(=O)N1CCOCC1 — higher, 5.44%
- Nc1c(N=Nc2ccccc2F)c(=O)[nH]n1-c1ccccc1 — higher, 24.8%
- CCOC(=O)Cc1csc(NC(=O)CSc2nc(-c3ccccc3)c(C#N)c(=O)[nH]2)n1 — higher, 27.7%
- Cc1cc(Nc2ccccc2)nc(N2CCN(C(=O)c3ccc4c(c3)OCO4)CC2)n1 — lower, 1.39%
- COc1ccccc1CCNC(=O)COc1cccc2c1OC(C)(C)C2 — lower, 2.74%
- O=C(O)C1C2CCC(C2)C1C(=O)Nc1cccc([N+](=O)[O-])c1 (stereo not shown) — higher, 15.1%
- Cc1cc(OCCN2CCCCC2)nc2ccccc12.Cl — lower, -22.7%
- O=C(C1CCN(S(=O)(=O)c2ccc(Br)s2)CC1)N1CCN(C2CCCCC2)CC1 — higher, 5.96%
- COc1ccc(NC(=O)NNC(=O)COc2ccc3ccccc3c2)cc1OC — higher, 13.2%
- COc1ccc(/C=C(/NC(=O)c2ccc(C)cc2)C(=O)NCC2CCCO2)cc1 (stereo not shown) — higher, 5.79%
- Cc1snc2sc(C(=O)c3ccc(F)cc3)c(N)c12 — higher, 8.84%
- CCN=C1S/C(=C\c2ccc(-c3cccc(C(=O)O)c3)o2)C(=O)N1CC — higher, 15.8%
- O=C1CCCN1CC1CCCN(Cc2nc(COc3ccccc3)no2)C1 (stereo not shown) — higher, 14%
- CN(C)CCCOC(=O)c1ccccc1 — higher, 6.77%
- O=C(N/N=C/c1c(F)c(F)c(F)c(F)c1F)c1cc(-c2ccccc2)nc2ccccc12 — higher, 12%
- Cc1cccc(C(CC(=O)N2CCCC2)c2ccccc2)c1O (stereo not shown) — higher, 9.96%
- COc1cccc(NC(=O)C(C)(C)C)c1 — lower, 2.1%
- N#Cc1cc2[nH]c3ccccc3c2[n+](-c2ccc([N+](=O)[O-])cc2)c1N.[Cl-] — lower, -28.7%
- CC(=O)c1sc(-c2ccc(F)cc2)cc1NS(=O)(=O)c1ccccc1 — higher, 23.8%
- N=C1SC(CC(=O)Nc2ccccc2[N+](=O)[O-])C(=O)N1c1ccccc1 (stereo not shown) — higher, 31.7%
- Cc1c(C(=O)N(C)C(C)c2ccccn2)oc2c(F)cccc12 (stereo not shown) — higher, 10.2%
- COc1ccc(CN(C(=O)c2cccs2)c2ccccc2)cc1 — higher, 22.1%
- [O-][n+]1c2c(nn1-c1ccccc1)/C(=N/O)CCC2 — lower, 0.495%
- CCCN1CN(Cc2ccccc2)CC2=C1CC(C)(C)CC2=O.Cl — lower, -1.42%
- CC1=CC(C#N)(C#N)C(C#N)(C#N)C(c2ccccc2)N1 (stereo not shown) — higher, 16.2%
- COc1ccc(C/C(C)=N/NC(=S)Nc2ccccc2F)cc1 — higher, 13.7%
- COc1cccc(CN2CCN(C(=O)COc3ccc4ccccc4c3)CC2)c1 — higher, 10.5%
- COC(=O)C1CN(C(=O)C(C)Oc2ccccc2Cl)c2ccccc2O1 (stereo not shown) — higher, 4.94%
- CN(CC(=O)Nc1ccc(Cl)c(C(F)(F)F)c1)C(=O)c1cccc2cccnc12 — lower, 1.14%
- Cc1nc(COc2cc3oc(=O)cc(C)c3cc2Cl)cs1 — higher, 14.9%
- COC(=O)c1c(C(=O)OC)c(-c2ccc(Cl)c(Cl)c2)n2c1CCC2 — higher, 15.1%
- O=C(CSc1nc2ccccc2c(=O)n1-c1ccccc1)N1CCc2ccccc21 — higher, 4.49%
- CN(C)C=C1C(=O)N(C2CCCCC2)C(=O)N(C2CCCCC2)C1=O — higher, 5.98%
- CN(C(=O)c1ccco1)c1nnc(-c2ccc(F)cc2)s1 — higher, 16.1%
